# Source: article PMC12820563, “FoxP3 forms a head-to-head dimer in vivo and stabilizes its multimerization on adjacent microsatellites”
# This is one part of the list.
# Target: T1, MBP-FoxP1dN (Mus musculus, UniProt P58462 326-579)
# T1 sequence: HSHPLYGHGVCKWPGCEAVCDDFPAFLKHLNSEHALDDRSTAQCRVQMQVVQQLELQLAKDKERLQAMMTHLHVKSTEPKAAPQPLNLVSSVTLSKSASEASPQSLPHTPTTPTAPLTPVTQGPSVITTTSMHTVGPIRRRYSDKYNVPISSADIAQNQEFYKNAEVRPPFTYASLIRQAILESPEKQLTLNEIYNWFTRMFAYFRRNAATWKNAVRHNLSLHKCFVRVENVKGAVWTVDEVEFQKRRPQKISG
# Assay: PD-seq (MBP pull-down with sequencing); 20 mM Tris-HCl pH 7.5, 100 mM NaCl, 1.5 mM MgCl2, 0.4 uM protein, 0.1 uM dsDNA library, 30 min, room temperature, amylose pull-down; high values mean tight binding
# Conditions: protein: recombinant; tags: His6-MBP; chain copies: 2; dsDNA, one strand shown
# In short: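 A fragment of mouse FoxP3 or FoxP1 without its N-terminus, carrying a His6-MBP tag and produced in E. coli, was combined at 0.4 µM with a 0.1 µM degenerate double-stranded DNA library filled in with Klenow. The mixture sat for 30 min at room temperature in Tris pH 7.5 buffer containing NaCl and MgCl2. Protein–DNA complexes were captured on amylose resin, washed three times, and the DNA was freed with proteinase K, barcoded by PCR and sequenced on Illumina. Binding is expressed as reads-per-million enrichment of pull-down over input, with replicates pooled.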
row,Sequence,binding signal
1,GATGATTGTTCTCCCAGCTGATGAATTGCGGCCATCGAGTAAACAAATTTTCCTAATCTTTCTGTTCAAGCGCCATCTAC,1.08 RPM ratio (pull-down/input)
2,GATGATTGTTCTCCCAGCTGATGAATTCAGTCCGTCGAGTAAACAAATTTTCCTAATCTTTCTGTTCAAGCGCCATCTAC,0.766 RPM ratio (pull-down/input)
3,GATGATTGTTCTCCCAGCTGATGAATTATACTTTTCGAGTAAACAAATTTTCCTAATCTTTCTGTTCAAGCGCCATCTAC,1.14 RPM ratio (pull-down/input)
4,GATGATTGTTCTCCCAGCTGATGAATTTACGCCTTCGAGTAAACAAATTTTCCTAATCTTTCTGTTCAAGCGCCATCTAC,1.29 RPM ratio (pull-down/input)
5,GATGATTGTTCTCCCAGCTGATGAATTATACAAGTCGAGTAAACAAATTTTCCTAATCTTTCTGTTCAAGCGCCATCTAC,1.27 RPM ratio (pull-down/input)
6,GATGATTGTTCTCCCAGCTGATGAATTCAGAGGATCGAGTAAACAAATTTTCCTAATCTTTCTGTTCAAGCGCCATCTAC,0.836 RPM ratio (pull-down/input)
7,GATGATTGTTCTCCCAGCTGATGAATTGCCACTGTCGAGTAAACAAATTTTCCTAATCTTTCTGTTCAAGCGCCATCTAC,0.956 RPM ratio (pull-down/input)
8,GATGATTGTTCTCCCAGCTGATGAATTTCGATTATCGAGTAAACAAATTTTCCTAATCTTTCTGTTCAAGCGCCATCTAC,1.09 RPM ratio (pull-down/input)
9,GATGATTGTTCTCCCAGCTGATGAATTTTACCCGTCGAGTAAACAAATTTTCCTAATCTTTCTGTTCAAGCGCCATCTAC,0.835 RPM ratio (pull-down/input)
10,GATGATTGTTCTCCCAGCTGATGAATTTTGGCGCTCGAGTAAACAAATTTTCCTAATCTTTCTGTTCAAGCGCCATCTAC,0.742 RPM ratio (pull-down/input)
11,GATGATTGTTCTCCCAGCTGATGAATTGAGCCACTCGAGTAAACAAATTTTCCTAATCTTTCTGTTCAAGCGCCATCTAC,0.828 RPM ratio (pull-down/input)
12,GATGATTGTTCTCCCAGCTGATGAATTCGAGATCTCGAGTAAACAAATTTTCCTAATCTTTCTGTTCAAGCGCCATCTAC,0.762 RPM ratio (pull-down/input)
13,GATGATTGTTCTCCCAGCTGATGAATTCCAACTTTCGAGTAAACAAATTTTCCTAATCTTTCTGTTCAAGCGCCATCTAC,0.884 RPM ratio (pull-down/input)
14,GATGATTGTTCTCCCAGCTGATGAATTCCTGCACTCGAGTAAACAAATTTTCCTAATCTTTCTGTTCAAGCGCCATCTAC,0.826 RPM ratio (pull-down/input)
15,GATGATTGTTCTCCCAGCTGATGAATTCTCCTCATCGAGTAAACAAATTTTCCTAATCTTTCTGTTCAAGCGCCATCTAC,0.888 RPM ratio (pull-down/input)
16,GATGATTGTTCTCCCAGCTGATGAATTCACATCATCGAGTAAACAAATTTTCCTAATCTTTCTGTTCAAGCGCCATCTAC,1.1 RPM ratio (pull-down/input)
17,GATGATTGTTCTCCCAGCTGATGAATTGACTGCCTCGAGTAAACAAATTTTCCTAATCTTTCTGTTCAAGCGCCATCTAC,0.958 RPM ratio (pull-down/input)
18,GATGATTGTTCTCCCAGCTGATGAATTCCTGGTATCGAGTAAACAAATTTTCCTAATCTTTCTGTTCAAGCGCCATCTAC,0.87 RPM ratio (pull-down/input)
19,GATGATTGTTCTCCCAGCTGATGAATTGGATGCTTCGAGTAAACAAATTTTCCTAATCTTTCTGTTCAAGCGCCATCTAC,1.05 RPM ratio (pull-down/input)
20,GATGATTGTTCTCCCAGCTGATGAATTTATTATATCGAGTAAACAAATTTTCCTAATCTTTCTGTTCAAGCGCCATCTAC,1.22 RPM ratio (pull-down/input)
21,GATGATTGTTCTCCCAGCTGATGAATTGCTAAGGTCGAGTAAACAAATTTTCCTAATCTTTCTGTTCAAGCGCCATCTAC,0.922 RPM ratio (pull-down/input)

row,Sequence,binding signal
1,GATGATTGTTCTCCCAGCTGATGAATTGTTGTGATCGAGTAAACAAATTTTCCTAATCTTTCTGTTCAAGCGCCATCTAC,2.32 RPM ratio (pull-down/input)
2,GATGATTGTTCTCCCAGCTGATGAATTTGGGACTTCGAGTAAACAAATTTTCCTAATCTTTCTGTTCAAGCGCCATCTAC,0.918 RPM ratio (pull-down/input)
3,GATGATTGTTCTCCCAGCTGATGAATTCCGCGACTCGAGTAAACAAATTTTCCTAATCTTTCTGTTCAAGCGCCATCTAC,0.761 RPM ratio (pull-down/input)
4,GATGATTGTTCTCCCAGCTGATGAATTCTATATATCGAGTAAACAAATTTTCCTAATCTTTCTGTTCAAGCGCCATCTAC,0.946 RPM ratio (pull-down/input)
5,GATGATTGTTCTCCCAGCTGATGAATTCAGCGATTCGAGTAAACAAATTTTCCTAATCTTTCTGTTCAAGCGCCATCTAC,0.919 RPM ratio (pull-down/input)
6,GATGATTGTTCTCCCAGCTGATGAATTGTACACATCGAGTAAACAAATTTTCCTAATCTTTCTGTTCAAGCGCCATCTAC,2.11 RPM ratio (pull-down/input)
7,GATGATTGTTCTCCCAGCTGATGAATTAACGAAATCGAGTAAACAAATTTTCCTAATCTTTCTGTTCAAGCGCCATCTAC,1.16 RPM ratio (pull-down/input)
8,GATGATTGTTCTCCCAGCTGATGAATTGCTTGAGTCGAGTAAACAAATTTTCCTAATCTTTCTGTTCAAGCGCCATCTAC,0.997 RPM ratio (pull-down/input)
9,GATGATTGTTCTCCCAGCTGATGAATTCCGATTTTCGAGTAAACAAATTTTCCTAATCTTTCTGTTCAAGCGCCATCTAC,0.901 RPM ratio (pull-down/input)
10,GATGATTGTTCTCCCAGCTGATGAATTGGTTCAGTCGAGTAAACAAATTTTCCTAATCTTTCTGTTCAAGCGCCATCTAC,0.952 RPM ratio (pull-down/input)
11,GATGATTGTTCTCCCAGCTGATGAATTTGGGGGTTCGAGTAAACAAATTTTCCTAATCTTTCTGTTCAAGCGCCATCTAC,0.753 RPM ratio (pull-down/input)
12,GATGATTGTTCTCCCAGCTGATGAATTAAGACGGTCGAGTAAACAAATTTTCCTAATCTTTCTGTTCAAGCGCCATCTAC,0.805 RPM ratio (pull-down/input)
13,GATGATTGTTCTCCCAGCTGATGAATTGTATAAATCGAGTAAACAAATTTTCCTAATCTTTCTGTTCAAGCGCCATCTAC,1.24 RPM ratio (pull-down/input)
14,GATGATTGTTCTCCCAGCTGATGAATTTGCATGCTCGAGTAAACAAATTTTCCTAATCTTTCTGTTCAAGCGCCATCTAC,1.09 RPM ratio (pull-down/input)
15,GATGATTGTTCTCCCAGCTGATGAATTGTCCGTATCGAGTAAACAAATTTTCCTAATCTTTCTGTTCAAGCGCCATCTAC,0.944 RPM ratio (pull-down/input)
16,GATGATTGTTCTCCCAGCTGATGAATTTTAATGGTCGAGTAAACAAATTTTCCTAATCTTTCTGTTCAAGCGCCATCTAC,0.9 RPM ratio (pull-down/input)
17,GATGATTGTTCTCCCAGCTGATGAATTGGGGAGATCGAGTAAACAAATTTTCCTAATCTTTCTGTTCAAGCGCCATCTAC,0.797 RPM ratio (pull-down/input)
18,GATGATTGTTCTCCCAGCTGATGAATTGTATGACTCGAGTAAACAAATTTTCCTAATCTTTCTGTTCAAGCGCCATCTAC,0.974 RPM ratio (pull-down/input)
19,GATGATTGTTCTCCCAGCTGATGAATTTATACGATCGAGTAAACAAATTTTCCTAATCTTTCTGTTCAAGCGCCATCTAC,1.12 RPM ratio (pull-down/input)
20,GATGATTGTTCTCCCAGCTGATGAATTGGCTTAGTCGAGTAAACAAATTTTCCTAATCTTTCTGTTCAAGCGCCATCTAC,0.844 RPM ratio (pull-down/input)
21,GATGATTGTTCTCCCAGCTGATGAATTCGACGTATCGAGTAAACAAATTTTCCTAATCTTTCTGTTCAAGCGCCATCTAC,1.03 RPM ratio (pull-down/input)

row,Sequence,binding signal
1,GATGATTGTTCTCCCAGCTGATGAATTCTTTGAATCGAGTAAACAAATTTTCCTAATCTTTCTGTTCAAGCGCCATCTAC,0.931 RPM ratio (pull-down/input)
2,GATGATTGTTCTCCCAGCTGATGAATTTACTGCCTCGAGTAAACAAATTTTCCTAATCTTTCTGTTCAAGCGCCATCTAC,1.06 RPM ratio (pull-down/input)
3,GATGATTGTTCTCCCAGCTGATGAATTCTATCTGTCGAGTAAACAAATTTTCCTAATCTTTCTGTTCAAGCGCCATCTAC,0.875 RPM ratio (pull-down/input)
4,GATGATTGTTCTCCCAGCTGATGAATTAAGCGAGTCGAGTAAACAAATTTTCCTAATCTTTCTGTTCAAGCGCCATCTAC,0.873 RPM ratio (pull-down/input)
5,GATGATTGTTCTCCCAGCTGATGAATTCGTTCGCTCGAGTAAACAAATTTTCCTAATCTTTCTGTTCAAGCGCCATCTAC,0.836 RPM ratio (pull-down/input)
6,GATGATTGTTCTCCCAGCTGATGAATTGAATTCATCGAGTAAACAAATTTTCCTAATCTTTCTGTTCAAGCGCCATCTAC,1.02 RPM ratio (pull-down/input)
7,GATGATTGTTCTCCCAGCTGATGAATTGTTTAGCTCGAGTAAACAAATTTTCCTAATCTTTCTGTTCAAGCGCCATCTAC,1.89 RPM ratio (pull-down/input)
8,GATGATTGTTCTCCCAGCTGATGAATTTCTGTATTCGAGTAAACAAATTTTCCTAATCTTTCTGTTCAAGCGCCATCTAC,1.3 RPM ratio (pull-down/input)
9,GATGATTGTTCTCCCAGCTGATGAATTTATATGTTCGAGTAAACAAATTTTCCTAATCTTTCTGTTCAAGCGCCATCTAC,1.27 RPM ratio (pull-down/input)
10,GATGATTGTTCTCCCAGCTGATGAATTAATGGTCTCGAGTAAACAAATTTTCCTAATCTTTCTGTTCAAGCGCCATCTAC,0.879 RPM ratio (pull-down/input)
11,GATGATTGTTCTCCCAGCTGATGAATTCAGGCCTTCGAGTAAACAAATTTTCCTAATCTTTCTGTTCAAGCGCCATCTAC,0.84 RPM ratio (pull-down/input)
12,GATGATTGTTCTCCCAGCTGATGAATTCATAAATTCGAGTAAACAAATTTTCCTAATCTTTCTGTTCAAGCGCCATCTAC,1 RPM ratio (pull-down/input)
13,GATGATTGTTCTCCCAGCTGATGAATTTCTATGATCGAGTAAACAAATTTTCCTAATCTTTCTGTTCAAGCGCCATCTAC,0.89 RPM ratio (pull-down/input)
14,GATGATTGTTCTCCCAGCTGATGAATTCTGTAATTCGAGTAAACAAATTTTCCTAATCTTTCTGTTCAAGCGCCATCTAC,0.951 RPM ratio (pull-down/input)
15,GATGATTGTTCTCCCAGCTGATGAATTAGACGAGTCGAGTAAACAAATTTTCCTAATCTTTCTGTTCAAGCGCCATCTAC,0.902 RPM ratio (pull-down/input)
16,GATGATTGTTCTCCCAGCTGATGAATTTGGCGCATCGAGTAAACAAATTTTCCTAATCTTTCTGTTCAAGCGCCATCTAC,1.19 RPM ratio (pull-down/input)
17,GATGATTGTTCTCCCAGCTGATGAATTAGGCGAGTCGAGTAAACAAATTTTCCTAATCTTTCTGTTCAAGCGCCATCTAC,0.822 RPM ratio (pull-down/input)
18,GATGATTGTTCTCCCAGCTGATGAATTGCCTGTATCGAGTAAACAAATTTTCCTAATCTTTCTGTTCAAGCGCCATCTAC,1.11 RPM ratio (pull-down/input)
19,GATGATTGTTCTCCCAGCTGATGAATTTATCAAGTCGAGTAAACAAATTTTCCTAATCTTTCTGTTCAAGCGCCATCTAC,0.966 RPM ratio (pull-down/input)
20,GATGATTGTTCTCCCAGCTGATGAATTATACACTTCGAGTAAACAAATTTTCCTAATCTTTCTGTTCAAGCGCCATCTAC,1.15 RPM ratio (pull-down/input)
21,GATGATTGTTCTCCCAGCTGATGAATTAACCTCATCGAGTAAACAAATTTTCCTAATCTTTCTGTTCAAGCGCCATCTAC,0.942 RPM ratio (pull-down/input)
